# Laboratory results from the supplement of paper PMC8728848.
# Some of the results follow.
# B1: Pwp5 ND (Candida glabrata) (protein)
# chain: MGSSHHHHHHSSGLVPRGSHMASANPVPLTNVCYFPEEYPRQAGFRAITAGLASTILQGSVDELLNYSGLSSLTTQQTTTTTPNFQLPTLPLPTNVYGLTVVPLYLLVQLQGYFVPPVSGQYTFSLENTNDAAIIFFGNPSAFPCGDLSAWPQASADDITVTDGTFPSRTLFLKAGVAYPMRISYYNSLGSGNLAVSFTDPGGTKRTNWNGYIWRYNSCSTCTYT
# How the values were obtained:
# Experiment in all cases: glycan array binding signal (z-score within array); higher = stronger binding
# Details in all cases: glycan notation: IUPAC condensed, linker removed
# Fuc(a1-2)Gal = molecular target: Fuc(a1-2)Gal
# In short: (§1)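 The binding signal is a Z-score computed within each array and averaged over linkers. Arrays of the same protein sequence at different concentrations or buffers were also averaged together. Data originate from 3228 arrays in the Consortium for Functional Glycomics database, kept only where the protein sequence was available.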
# Fuc(a1-2)Gal(b1-3)GalNAc = molecular target: Fuc(a1-2)Gal(b1-3)GalNAc
# In short: as §1
# [1] = molecular target: Fuc(a1-2)Gal(b1-3)GalNAc(a1-3)[Fuc(a1-2)]Gal(b1-4)Glc
# In short: as §1
# [2] = molecular target: Fuc(a1-2)Gal(b1-3)GalNAc(a1-3)[Fuc(a1-2)]Gal(b1-4)GlcNAc
# In short: as §1
# [3] = molecular target: Fuc(a1-2)Gal(b1-3)GalNAc(b1-3)Gal
# In short: as §1
# [4] = molecular target: Fuc(a1-2)Gal(b1-3)GalNAc(b1-3)Gal(a1-4)Gal(b1-4)Glc
# In short: as §1
# [5] = molecular target: Fuc(a1-2)Gal(b1-3)GalNAc(b1-4)[Neu5Ac(a2-3)]Gal(b1-4)Glc
# In short: as §1
# Fuc(a1-2)Gal(b1-3)GlcNAc = molecular target: Fuc(a1-2)Gal(b1-3)GlcNAc
# In short: as §1
# [6] = molecular target: Fuc(a1-2)Gal(b1-3)GlcNAc(b1-2)Man(a1-3)[Fuc(a1-2)Gal(b1-3)GlcNAc(b1-2)Man(a1-6)]Man(b1-4)GlcNAc(b1-4)GlcNAc
# In short: as §1
# [7] = molecular target: Fuc(a1-2)Gal(b1-3)GlcNAc(b1-2)Man(a1-3)[Fuc(a1-2)Gal(b1-3)GlcNAc(b1-2)Man(a1-6)]Man(b1-4)GlcNAc(b1-4)[Fuc(a1-6)]GlcNAc
# In short: as §1
# [8] = molecular target: Fuc(a1-2)Gal(b1-3)GlcNAc(b1-3)Gal(b1-4)Glc
# In short: as §1
# [9] = molecular target: Fuc(a1-2)Gal(b1-3)GlcNAc(b1-3)GalNAc
# In short: as §1
# [10] = molecular target: Fuc(a1-2)Gal(b1-3)GlcNAc(b1-3)[Fuc(a1-2)Gal(b1-3)GlcNAc(b1-6)]GalNAc
# In short: as §1
# [11] = molecular target: Fuc(a1-2)Gal(b1-3)GlcNAc(b1-3)[Gal(b1-4)GlcNAc(b1-6)]Gal(b1-4)Glc
# In short: as §1
# [12] = molecular target: Fuc(a1-2)Gal(b1-3)GlcNAc(b1-3)[Neu5Ac(a2-6)Gal(b1-4)GlcNAc(b1-6)]Gal(b1-4)Glc
# In short: as §1
# [13] = molecular target: Fuc(a1-2)Gal(b1-3)GlcNAc6S
# In short: as §1
# [14] = molecular target: Fuc(a1-2)Gal(b1-3)[Fuc(a1-4)]GlcNAc
# In short: as §1
# [15] = molecular target: Fuc(a1-2)Gal(b1-3)[Fuc(a1-4)]GlcNAc(b1-2)Man(a1-3)[Fuc(a1-2)Gal(b1-3)[Fuc(a1-4)]GlcNAc(b1-2)Man(a1-3)]Man(b1-4)GlcNAc(b1-4)GlcNAc
# In short: as §1
# [16] = molecular target: Fuc(a1-2)Gal(b1-3)[Fuc(a1-4)]GlcNAc(b1-2)Man(a1-3)[Fuc(a1-2)Gal(b1-3)[Fuc(a1-4)]GlcNAc(b1-2)Man(a1-6)]Man(b1-4)GlcNAc(b1-4)[Fuc(a1-6)]GlcNAc(b1-4)[Fuc(a1-6)]GlcNAc
# In short: as §1
# [17] = molecular target: Fuc(a1-2)Gal(b1-3)[Fuc(a1-4)]GlcNAc(b1-3)[Fuc(a1-3)[Gal(b1-4)]GlcNAc(b1-6)]Gal(b1-4)Glc
# In short: as §1
# [18] = molecular target: Fuc(a1-2)Gal(b1-3)[Fuc(a1-4)]GlcNAc(b1-3)[Gal(b1-4)GlcNAc(b1-6)]Gal(b1-4)Glc
# In short: as §1
# Fuc(a1-2)Gal(b1-4)Glc = molecular target: Fuc(a1-2)Gal(b1-4)Glc
# In short: as §1
# Fuc(a1-2)Gal(b1-4)Glc6S = molecular target: Fuc(a1-2)Gal(b1-4)Glc6S
# In short: as §1
# Fuc(a1-2)Gal(b1-4)GlcNAc = molecular target: Fuc(a1-2)Gal(b1-4)GlcNAc
# In short: as §1
# [19] = molecular target: Fuc(a1-2)Gal(b1-4)GlcNAc(b1-2)Man
# In short: as §1
# [20] = molecular target: Fuc(a1-2)Gal(b1-4)GlcNAc(b1-2)Man(a1-3)[Fuc(a1-2)Gal(b1-4)GlcNAc(b1-2)Man(a1-6)]Man(b1-4)GlcNAc(b1-4)GlcNAc
# In short: as §1
# [21] = molecular target: Fuc(a1-2)Gal(b1-4)GlcNAc(b1-2)Man(a1-3)[Fuc(a1-2)Gal(b1-4)GlcNAc(b1-2)Man(a1-6)]Man(b1-4)GlcNAc(b1-4)[Fuc(a1-6)]GlcNAc
# In short: as §1
# [22] = molecular target: Fuc(a1-2)Gal(b1-4)GlcNAc(b1-2)[Fuc(a1-2)Gal(b1-4)GlcNAc(b1-4)]Man(a1-3)[Fuc(a1-2)Gal(b1-4)GlcNAc(b1-2)Man(a1-6)]Man(b1-4)GlcNAc(b1-4)GlcNAc
# In short: as §1
# [23] = molecular target: Fuc(a1-2)Gal(b1-4)GlcNAc(b1-3)Gal(b1-4)GlcNAc
# In short: as §1
# [24] = molecular target: Fuc(a1-2)Gal(b1-4)GlcNAc(b1-3)Gal(b1-4)GlcNAc(b1-2)Man(a1-3)[Fuc(a1-2)Gal(b1-4)GlcNAc(b1-3)Gal(b1-4)GlcNAc(b1-2)Man(a1-6)]Man(b1-4)GlcNAc(b1-4)GlcNAc
# In short: as §1
# [25] = molecular target: Fuc(a1-2)Gal(b1-4)GlcNAc(b1-3)Gal(b1-4)GlcNAc(b1-3)Gal(b1-4)GlcNAc
# In short: as §1
# [26] = molecular target: Fuc(a1-2)Gal(b1-4)GlcNAc(b1-3)GalNAc
# In short: as §1
# [27] = molecular target: Fuc(a1-2)Gal(b1-4)GlcNAc(b1-3)[Fuc(a1-2)Gal(b1-4)GlcNAc(b1-6)]GalNAc
# In short: as §1
# [28] = molecular target: Fuc(a1-2)Gal(b1-4)GlcNAc(b1-3)[Fuc(a1-3)[Gal(b1-4)]GlcNAc(b1-6)]Gal(b1-4)Glc
# In short: as §1
# [29] = molecular target: Fuc(a1-2)Gal(b1-4)GlcNAc(b1-6)GalNAc
# In short: as §1
# [30] = molecular target: Fuc(a1-2)Gal(b1-4)GlcNAc6S
# In short: as §1
# [31] = molecular target: Fuc(a1-2)Gal(b1-4)[Fuc(a1-3)]GlcNAc
# In short: as §1
# [32] = molecular target: Fuc(a1-2)Gal(b1-4)[Fuc(a1-3)]GlcNAc(b1-2)Man(a1-3)[Fuc(a1-2)Gal(b1-4)[Fuc(a1-3)]GlcNAc(b1-2)Man(a1-6)]Man(b1-4)GlcNAc(b1-4)[Fuc(a1-6)]GlcNAc
# In short: as §1
# [33] = molecular target: Fuc(a1-2)Gal(b1-4)[Fuc(a1-3)]GlcNAc(b1-2)[Fuc(a1-2)Gal(b1-4)[Fuc(a1-3)]GlcNAc(b1-4)]Man(a1-3)[Fuc(a1-2)Gal(b1-4)[Fuc(a1-3)]GlcNAc(b1-2)Man(a1-6)]Man(b1-4)GlcNAc(b1-4)GlcNAc
# In short: as §1
# [34] = molecular target: Fuc(a1-2)Gal(b1-4)[Fuc(a1-3)]GlcNAc(b1-3)Gal(b1-4)[Fuc(a1-3)]GlcNAc
# In short: as §1
# [35] = molecular target: Fuc(a1-2)Gal(b1-4)[Fuc(a1-3)]GlcNAc(b1-3)Gal(b1-4)[Fuc(a1-3)]GlcNAc(b1-3)Gal(b1-4)[Fuc(a1-3)]GlcNAc
# In short: as §1
# [36] = molecular target: Fuc(a1-2)Gal(b1-4)[Fuc(a1-3)]GlcNAc(b1-3)GalNAc
# In short: as §1
# [37] = molecular target: Fuc(a1-2)Gal(b1-4)[Fuc(a1-3)]GlcNAc(b1-3)[Neu5Ac(a2-6)Gal(b1-4)GlcNAc(b1-6)]Gal(b1-4)Glc
# In short: as §1
# [38] = molecular target: Fuc(a1-2)Gal3S(b1-4)GlcNAc
# In short: as §1
# [39] = molecular target: Fuc(a1-2)Gal6S(b1-3)GlcNAc
# In short: as §1
binder,measurement,setting,value
B1,glycan array binding signal (z-score),Fuc(a1-2)Gal,-0.566
same,glycan array binding signal (z-score),Fuc(a1-2)Gal(b1-3)GalNAc,-0.411
same,glycan array binding signal (z-score),[1],-0.519
same,glycan array binding signal (z-score),[2],-0.543
same,glycan array binding signal (z-score),[3],0.177
same,glycan array binding signal (z-score),[4],1.36
same,glycan array binding signal (z-score),[5],-0.235
same,glycan array binding signal (z-score),Fuc(a1-2)Gal(b1-3)GlcNAc,-0.53
same,glycan array binding signal (z-score),[6],1.49
same,glycan array binding signal (z-score),[7],-0.08
same,glycan array binding signal (z-score),[8],-0.48
same,glycan array binding signal (z-score),[9],-0.554
same,glycan array binding signal (z-score),[10],1.05
same,glycan array binding signal (z-score),[11],-0.322
same,glycan array binding signal (z-score),[12],-0.533
same,glycan array binding signal (z-score),[13],-0.214
same,glycan array binding signal (z-score),[14],0.311
same,glycan array binding signal (z-score),[15],0.379
same,glycan array binding signal (z-score),[16],0.234
same,glycan array binding signal (z-score),[17],-0.557
same,glycan array binding signal (z-score),[18],-0.696
same,glycan array binding signal (z-score),Fuc(a1-2)Gal(b1-4)Glc,-0.398
same,glycan array binding signal (z-score),Fuc(a1-2)Gal(b1-4)Glc6S,-0.615
same,glycan array binding signal (z-score),Fuc(a1-2)Gal(b1-4)GlcNAc,-0.057
same,glycan array binding signal (z-score),[19],-0.373
same,glycan array binding signal (z-score),[20],-0.139
same,glycan array binding signal (z-score),[21],0.066
same,glycan array binding signal (z-score),[22],2.82
same,glycan array binding signal (z-score),[23],1
same,glycan array binding signal (z-score),[24],0.084
same,glycan array binding signal (z-score),[25],-0.333
same,glycan array binding signal (z-score),[26],-0.443
same,glycan array binding signal (z-score),[27],0.487
same,glycan array binding signal (z-score),[28],-0.054
same,glycan array binding signal (z-score),[29],3.91
same,glycan array binding signal (z-score),[30],-0.516
same,glycan array binding signal (z-score),[31],-0.206
same,glycan array binding signal (z-score),[32],0.134
same,glycan array binding signal (z-score),[33],-0.095
same,glycan array binding signal (z-score),[34],-0.47
same,glycan array binding signal (z-score),[35],-0.252
same,glycan array binding signal (z-score),[36],-0.285
same,glycan array binding signal (z-score),[37],-0.571
same,glycan array binding signal (z-score),[38],2.21
same,glycan array binding signal (z-score),[39],-0.471
